In the supplement of paper PMC3334620:
Whole data set: some 33,000 sequences, median “E-score (-0.5 to 0.5)” near -0.021, cut for the highest 2% near 0.32. This is one part of the list.

Each sequence was assayed against T1, Zap1 (UniProt P47043) (assay: PBM E-score (8-mer binding enrichment) (E-score (-0.5 to 0.5)); higher = stronger / more preferred TF binding; most listed sequences are background and not binding sites). Details: protein concentration: 200 nM; construct: GST-full length.
T1 sequence: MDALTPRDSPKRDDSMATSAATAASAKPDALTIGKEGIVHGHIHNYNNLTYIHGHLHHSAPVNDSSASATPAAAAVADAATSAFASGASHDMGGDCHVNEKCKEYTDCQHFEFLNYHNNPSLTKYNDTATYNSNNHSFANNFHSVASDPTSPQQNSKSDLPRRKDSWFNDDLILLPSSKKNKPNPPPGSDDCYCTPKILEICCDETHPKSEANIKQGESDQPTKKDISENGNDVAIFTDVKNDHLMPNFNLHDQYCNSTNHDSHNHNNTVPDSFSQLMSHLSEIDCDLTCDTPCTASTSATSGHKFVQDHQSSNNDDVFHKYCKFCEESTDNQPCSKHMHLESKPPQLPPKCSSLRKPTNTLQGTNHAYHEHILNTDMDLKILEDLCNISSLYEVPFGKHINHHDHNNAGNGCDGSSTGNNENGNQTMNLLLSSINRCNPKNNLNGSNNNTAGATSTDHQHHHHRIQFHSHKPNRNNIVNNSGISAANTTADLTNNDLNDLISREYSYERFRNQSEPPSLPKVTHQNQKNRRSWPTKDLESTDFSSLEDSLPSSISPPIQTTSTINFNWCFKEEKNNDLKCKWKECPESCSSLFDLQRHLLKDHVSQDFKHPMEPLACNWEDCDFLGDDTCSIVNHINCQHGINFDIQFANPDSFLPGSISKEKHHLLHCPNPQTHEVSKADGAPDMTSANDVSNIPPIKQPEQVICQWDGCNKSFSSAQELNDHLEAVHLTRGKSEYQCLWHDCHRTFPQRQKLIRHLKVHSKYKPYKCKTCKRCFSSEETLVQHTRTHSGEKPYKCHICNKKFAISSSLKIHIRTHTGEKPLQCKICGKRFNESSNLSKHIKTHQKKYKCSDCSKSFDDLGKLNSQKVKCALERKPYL
Summary of the method: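 Masliner-normalised scans of fluorescent anti-GST signal were the basis for scoring. That signal came from GST-tagged yeast transcription factors applied at about 100-200 nM to double-stranded universal all-10-mer Agilent arrays on fresh or once-stripped slides. Each ungapped eight-base word, pooled with its reverse complement, received an E-score from the Universal PBM Analysis Suite.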

Row | Sequence | PBM E-score
1 | AAGTGACA | 0.117
2 | GCACTCGC | -0.235
3 | AACACGAC | 0.0766
4 | GGTGTTAC | 0.0513
5 | CCACCTCA | 0.119
6 | ACTTAGCA | -0.059
7 | AATCTCAA | 0.278
8 | GAGCTTCC | -0.231
9 | CCTCCGCA | -0.0881
10 | GGGTGTGA | -0.0632
11 | CATCCATA | 0.0171
12 | CACAGGAA | -0.0488
13 | GCATTGAC | -0.124
14 | ACAATCGG | 0.0205
15 | TACCCATA | 0.266
16 | GCTAGCAC | -0.176
17 | AGATAGCC | -0.152
18 | CGCAGACC | -0.147
19 | ATCTTCTG | -0.125
20 | CCCGACGC | -0.0442
21 | AGTAACGG | 0.126
22 | GGGATCAC | -0.099
23 | CGGCCCTC | -0.24
24 | AGGAGTAT | -0.207
25 | CCGATAGC | -0.225

Row | Sequence | PBM E-score
26 | GATGTGCC | -0.157
27 | GGGATAGA | -0.159
28 | GACCTGGC | -0.0867
29 | AACATGGA | 0.061
30 | AAGAAGAC | 0.00534
31 | AACCCACA | 0.331
32 | CCCGATCA | -0.221
33 | CAGAATTC | 0.12
34 | CACAGTGG | -0.0435
35 | GGACCGAC | -0.00091
36 | CAATCGAC | -0.0378
37 | ACGAGAGT | -0.197
38 | GTTATTTA | 0.325
39 | AAAGCTGA | -0.0433
40 | AGCTTAGC | -0.117
41 | AGGTTTCC | 0.135
42 | CTCCTCCA | -0.196
43 | AGAGGAAC | -0.208
44 | ATGAATAG | 0.0537
45 | AGCGTTAG | -0.147
46 | GTGAAAAA | 0.175
47 | CCCTTAGG | 0.29
48 | ATGAACAG | -0.00688
49 | CAGGCGTC | -0.226
50 | ACTGACAG | 0.0286

Row | Sequence | PBM E-score
51 | AGGCTGAC | -0.242
52 | CCATAATC | 0.17
53 | AAGCTAGC | -0.215
54 | ATGCCGTG | -0.224
55 | CAGAGAAG | -0.0979
56 | GGAATAGA | 0.0152
57 | GAAGTTGA | -0.117
58 | AAGGGTAT | 0.421
59 | CGACCGAA | 0.0132
60 | AGATCTAA | -0.0944
61 | AGAGTGCG | 0.0289
62 | GCCCGTAA | 0.0448
63 | AATTCATG | 0.131
64 | CCACAAGG | 0.33
65 | GCGGATCC | -0.0744
66 | CCACTAGC | -0.0965
67 | CACCGATC | -0.0332
68 | CAATGCCC | -0.0391
69 | ACTCACAA | 0.162
70 | AGGTGAAA | 0.0415
71 | GAACGCGC | -0.00333
72 | GCGACGAC | -0.223
73 | AGAGTGGA | -0.123
74 | CCATAGAG | 0.00274
75 | GAGACCTA | 0.012

Row | Sequence | PBM E-score
76 | GCCGTTCA | -0.0892
77 | ACCACAAT | 0.186
78 | GCCGCCGC | -0.0987
79 | ATGCCGAC | -0.0634
80 | CTACTAAC | 0.216
81 | ATGGGGAC | 0.0936
82 | ACCTCTCA | 0.344
83 | CATGATTA | 0.188
84 | AACGCCAC | -0.161
85 | CAAAGACG | -0.0783
86 | CTCATCGA | -0.0228
87 | AAAGCAGC | -0.0521
88 | ACTACCCG | 0.261
89 | AGACGGTG | -0.179
90 | CAGCAATG | -0.172
91 | CAAGACAG | -0.0336
92 | ACGAGTTC | 0.0137
93 | CTACCTTC | 0.237
94 | ACACAGAT | -0.146
95 | CCCAGCGA | -0.0801
96 | GGCCAACA | -0.18
97 | ATTCTCTG | -0.159
98 | GAGCTATA | -0.233
99 | CGCCTCCG | -0.295
100 | AGTTATCA | 0.186

Row | Sequence | PBM E-score
101 | AGAACTAT | -0.104
102 | ACCCGAGC | 0.165
103 | TGTATCAA | 0.0916
104 | AGTGCTGG | -0.209
105 | GCCAGACA | 0.0344
106 | GGTGTCAC | 0.0261
107 | CTACTGAC | -0.0865
108 | ATACCGGG | 0.0655
109 | ACAAACTG | -0.16
110 | AGGCGAGG | -0.0846
111 | CGGGAAGA | -0.0305
112 | ATGTTATC | 0.0946
113 | AGGCAAAT | -0.127
114 | AAAAACAG | 0.0872
115 | ATGCATGC | -0.173
116 | TCGACCCA | -0.00403
117 | AACGGAAC | 0.0362
118 | GACTTGCA | -0.0829
119 | AGCAATAA | 0.0355
120 | AGATCGCT | -0.204
121 | CTCGCTAA | 0.0275
122 | ATTCAAAT | 0.037
123 | AGTTGTAT | 0.00413
124 | ATTACGGG | 0.133
125 | ATTGGCAC | -0.121

Row | Sequence | PBM E-score
126 | GATACGGA | -0.122
127 | CTACGGAC | -0.105
128 | GAGCGTTA | -0.00965
129 | GCAAGCCA | -0.261
130 | GAATATGC | -0.197
131 | TAAGATCA | 0.163
132 | AGACACCA | -0.0997
133 | ACCCCGCA | 0.24
134 | AGAGTACA | -0.0126
135 | CCTGTTGA | -0.0239
136 | CGAACTGA | -0.13
137 | CGCCACTA | -0.111
138 | CGGAGACG | -0.0214
139 | TCCACAGA | -0.118
140 | GAACTCCA | -0.139
141 | CGCCTAAG | -0.148
142 | ATCGTGCG | 0.158
143 | CCAAGTCG | -0.0298
144 | GCAGATAA | 0.0842
145 | AATTATGA | 0.22
146 | AGCTTACG | 0.0267
147 | CCCACCTC | 0.118
148 | GAGACAGC | -0.0479
149 | AATGCTGA | -0.252
150 | GCCGCTGA | 0.0337

Row | Sequence | PBM E-score
151 | GACCCTCA | 0.189
152 | GTATAAGA | 0.0698
153 | CGAAGTCC | -0.0816
154 | ATATACGC | -0.144
155 | TGCCCGCA | 0.118
156 | TACTGCTA | -0.132
157 | AAACACAT | 0.0777
158 | ATCTGCTC | -0.21
159 | AGGGCCCT | 0.105
160 | AAATGACT | -0.262
161 | GCAGGTTA | 0.335
162 | ATCAGACG | -0.15
163 | ACTGCGGG | -0.0481
164 | AGAATAGC | 0.0192
165 | TGGAGCAA | -0.025
166 | ATCCTCGG | -0.175
167 | AGTCGTAC | -0.128
168 | CCCAATAA | 0.144
169 | GCGTTGAC | -0.0667
170 | ACGAGGGG | -0.242
171 | AGCCATTG | 0.0551
172 | AAAGTCAT | 0.0605
